Reference: the supplement of paper PMC7125110
± gives the standard error. Variants at the background level are over-represented here.

B1: glmS ribozyme (parent)
chain: AUAAAAGCGCCAGAACUACAGAAAUGUAGUUGACGAGGAGGAGGUUUAUCGAAUUUUCGGCGGAUGCCUCCAAA

Tests used:
Details in all cases: with glucosamine-6-phosphate
glucosamine-6-phosphate [1] = variants of: B1; assay: self-cleavage kobs at 40 uM GlcN6P; higher = faster cleavage; RNA array
In short: (§1)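 kobs was derived by fitting per-tile medians to one- or two-exponential decays after normalising signals to baseline and to non-cleaving reference variants. Those signals came from barcoded ribozyme variants transcribed in situ by E. coli RNA polymerase on sequenced MiSeq chips, followed through a hybridised Cy3 probe at 37 °C and imaged over ~14 h. Glucosamine-6-phosphate (40 μM to 10 mM) in HEPES/KCl/Mg(OAc)2 buffer was flowed in. Weighted Michaelis–Menten fits across concentrations then gave kcat and KM.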

glucosamine-6-phosphate [2] = variants of: B1; assay: self-cleavage kobs at 640 uM GlcN6P; higher = faster cleavage; RNA array
In short: as §1

glucosamine-6-phosphate [3] = variants of: B1; assay: self-cleavage kobs at 10000 uM GlcN6P; higher = faster cleavage; RNA array
In short: as §1

glucosamine-6-phosphate [4] = variants of: B1; assay: self-cleavage kobs at 160 uM GlcN6P; higher = faster cleavage; RNA array
In short: as §1

glucosamine-6-phosphate [5] = variants of: B1; assay: self-cleavage kobs at 2500 uM GlcN6P; higher = faster cleavage; RNA array
In short: as §1

## A12G G38U A39U
glucosamine-6-phosphate [1]
  self-cleavage kobs at 40 uM GlcN6P: < 1e-05 s⁻¹
glucosamine-6-phosphate [2]
  self-cleavage kobs at 640 uM GlcN6P: < 1e-05 s⁻¹

## A12U A36G A53G
glucosamine-6-phosphate [1]
  self-cleavage kobs at 40 uM GlcN6P: < 1e-05 s⁻¹

## C11U A53C U56C C61U C70A
glucosamine-6-phosphate [1]
  self-cleavage kobs at 40 uM GlcN6P: < 1e-05 s⁻¹
glucosamine-6-phosphate [3]
  self-cleavage kobs at 10000 uM GlcN6P: < 1e-05 s⁻¹

## A12U G37U
glucosamine-6-phosphate [1]
  self-cleavage kobs at 40 uM GlcN6P: < 1e-05 s⁻¹
glucosamine-6-phosphate [2]
  self-cleavage kobs at 640 uM GlcN6P: < 1e-05 s⁻¹

## C11G U65A
glucosamine-6-phosphate [1]
  self-cleavage kobs at 40 uM GlcN6P: < 1e-05 s⁻¹
glucosamine-6-phosphate [2]
  self-cleavage kobs at 640 uM GlcN6P: < 1e-05 s⁻¹
glucosamine-6-phosphate [3]
  self-cleavage kobs at 10000 uM GlcN6P: < 1e-05 s⁻¹

## C11G U65G
glucosamine-6-phosphate [1]
  self-cleavage kobs at 40 uM GlcN6P: < 1e-05 s⁻¹
glucosamine-6-phosphate [2]
  self-cleavage kobs at 640 uM GlcN6P: < 1e-05 s⁻¹
glucosamine-6-phosphate [3]
  self-cleavage kobs at 10000 uM GlcN6P: < 1e-05 s⁻¹

## C11G U65C
glucosamine-6-phosphate [1]
  self-cleavage kobs at 40 uM GlcN6P: < 1e-05 s⁻¹
glucosamine-6-phosphate [2]
  self-cleavage kobs at 640 uM GlcN6P: < 1e-05 s⁻¹
glucosamine-6-phosphate [4]
  self-cleavage kobs at 160 uM GlcN6P: < 1e-05 s⁻¹
glucosamine-6-phosphate [3]
  self-cleavage kobs at 10000 uM GlcN6P: < 1e-05 s⁻¹

## A12U U30A G59C
glucosamine-6-phosphate [1]
  self-cleavage kobs at 40 uM GlcN6P: < 1e-05 s⁻¹

## C11G C16A
glucosamine-6-phosphate [1]
  self-cleavage kobs at 40 uM GlcN6P: < 1e-05 s⁻¹
glucosamine-6-phosphate [2]
  self-cleavage kobs at 640 uM GlcN6P: < 1e-05 s⁻¹
glucosamine-6-phosphate [4]
  self-cleavage kobs at 160 uM GlcN6P: < 1e-05 s⁻¹
glucosamine-6-phosphate [5]
  self-cleavage kobs at 2500 uM GlcN6P: < 1e-05 s⁻¹

## C11G C16G
glucosamine-6-phosphate [1]
  self-cleavage kobs at 40 uM GlcN6P: < 1e-05 s⁻¹
glucosamine-6-phosphate [4]
  self-cleavage kobs at 160 uM GlcN6P: < 1e-05 s⁻¹
glucosamine-6-phosphate [5]
  self-cleavage kobs at 2500 uM GlcN6P: < 1e-05 s⁻¹
glucosamine-6-phosphate [3]
  self-cleavage kobs at 10000 uM GlcN6P: < 1e-05 s⁻¹

## A12U U45A A53U
glucosamine-6-phosphate [1]
  self-cleavage kobs at 40 uM GlcN6P: 0.00437 ± 0.0009 s⁻¹

## G13A A14G A36U G44A A48U U65A
glucosamine-6-phosphate [1]
  self-cleavage kobs at 40 uM GlcN6P: < 1e-05 s⁻¹
glucosamine-6-phosphate [5]
  self-cleavage kobs at 2500 uM GlcN6P: < 1e-05 s⁻¹
glucosamine-6-phosphate [3]
  self-cleavage kobs at 10000 uM GlcN6P: < 1e-05 s⁻¹

## A12G G51U
glucosamine-6-phosphate [1]
  self-cleavage kobs at 40 uM GlcN6P: < 1e-05 s⁻¹
glucosamine-6-phosphate [2]
  self-cleavage kobs at 640 uM GlcN6P: < 1e-05 s⁻¹
glucosamine-6-phosphate [3]
  self-cleavage kobs at 10000 uM GlcN6P: < 1e-05 s⁻¹

## A12G A14G G43C
glucosamine-6-phosphate [1]
  self-cleavage kobs at 40 uM GlcN6P: < 1e-05 s⁻¹
glucosamine-6-phosphate [5]
  self-cleavage kobs at 2500 uM GlcN6P: < 1e-05 s⁻¹

## C11U G13C C34A
glucosamine-6-phosphate [1]
  self-cleavage kobs at 40 uM GlcN6P: < 1e-05 s⁻¹
glucosamine-6-phosphate [3]
  self-cleavage kobs at 10000 uM GlcN6P: < 1e-05 s⁻¹

## A12U A33C G37C
glucosamine-6-phosphate [1]
  self-cleavage kobs at 40 uM GlcN6P: < 1e-05 s⁻¹

## G13A G44A
glucosamine-6-phosphate [1]
  self-cleavage kobs at 40 uM GlcN6P: < 1e-05 s⁻¹

## C11G U56G A64U
glucosamine-6-phosphate [1]
  self-cleavage kobs at 40 uM GlcN6P: < 1e-05 s⁻¹
glucosamine-6-phosphate [4]
  self-cleavage kobs at 160 uM GlcN6P: < 1e-05 s⁻¹
glucosamine-6-phosphate [5]
  self-cleavage kobs at 2500 uM GlcN6P: < 1e-05 s⁻¹

## A12C G40U U47G U49G
glucosamine-6-phosphate [1]
  self-cleavage kobs at 40 uM GlcN6P: < 1e-05 s⁻¹
glucosamine-6-phosphate [5]
  self-cleavage kobs at 2500 uM GlcN6P: < 1e-05 s⁻¹
glucosamine-6-phosphate [3]
  self-cleavage kobs at 10000 uM GlcN6P: < 1e-05 s⁻¹

## G13A U54A
glucosamine-6-phosphate [1]
  self-cleavage kobs at 40 uM GlcN6P: 5.62e-05 ± 2.4e-05 s⁻¹
glucosamine-6-phosphate [2]
  self-cleavage kobs at 640 uM GlcN6P: 0.000147 ± 3.8e-05 s⁻¹
glucosamine-6-phosphate [4]
  self-cleavage kobs at 160 uM GlcN6P: 5.51e-05 ± 1.6e-05 s⁻¹
glucosamine-6-phosphate [5]
  self-cleavage kobs at 2500 uM GlcN6P: 0.000299 ± 5.6e-05 s⁻¹
glucosamine-6-phosphate [3]
  self-cleavage kobs at 10000 uM GlcN6P: 0.000709 ± 0.0001 s⁻¹

## C11G C70U
glucosamine-6-phosphate [1]
  self-cleavage kobs at 40 uM GlcN6P: < 1e-05 s⁻¹

## G13A A52C
glucosamine-6-phosphate [1]
  self-cleavage kobs at 40 uM GlcN6P: < 1e-05 s⁻¹
glucosamine-6-phosphate [2]
  self-cleavage kobs at 640 uM GlcN6P: < 1e-05 s⁻¹
glucosamine-6-phosphate [4]
  self-cleavage kobs at 160 uM GlcN6P: < 1e-05 s⁻¹
glucosamine-6-phosphate [5]
  self-cleavage kobs at 2500 uM GlcN6P: < 1e-05 s⁻¹
glucosamine-6-phosphate [3]
  self-cleavage kobs at 10000 uM GlcN6P: < 1e-05 s⁻¹

## G13A A52U
glucosamine-6-phosphate [1]
  self-cleavage kobs at 40 uM GlcN6P: < 1e-05 s⁻¹
glucosamine-6-phosphate [4]
  self-cleavage kobs at 160 uM GlcN6P: < 1e-05 s⁻¹

## G13C G29U G32A
glucosamine-6-phosphate [1]
  self-cleavage kobs at 40 uM GlcN6P: 7.61e-05 ± 2.4e-05 s⁻¹
glucosamine-6-phosphate [3]
  self-cleavage kobs at 10000 uM GlcN6P: 0.00214 ± 0.00069 s⁻¹

## G13C A39U G59U
glucosamine-6-phosphate [1]
  self-cleavage kobs at 40 uM GlcN6P: < 1e-05 s⁻¹

## C11G U54C C70U
glucosamine-6-phosphate [1]
  self-cleavage kobs at 40 uM GlcN6P: < 1e-05 s⁻¹
glucosamine-6-phosphate [3]
  self-cleavage kobs at 10000 uM GlcN6P: < 1e-05 s⁻¹
